Source: paper PMC10726135
The other results are listed elsewhere or left out. At the low end of the ranking, values are background and their order means little. Measured with an extract: partners may take part in the binding.

molecular target: T1, HNF4alpha8 (COS-7 nuclear extract) (UniProt P41235-5); experiment: protein-binding microarray; settings: COS-7 nuclear extract on double-stranded Agilent 4x180k PBM; binding buffer, salt, pH and temperature not given; high values mean tight binding; double strand, one strand shown; sequences stand for … in …GCCTAGGGAGATTAGAGTATCGGTCGA
T1 sequence: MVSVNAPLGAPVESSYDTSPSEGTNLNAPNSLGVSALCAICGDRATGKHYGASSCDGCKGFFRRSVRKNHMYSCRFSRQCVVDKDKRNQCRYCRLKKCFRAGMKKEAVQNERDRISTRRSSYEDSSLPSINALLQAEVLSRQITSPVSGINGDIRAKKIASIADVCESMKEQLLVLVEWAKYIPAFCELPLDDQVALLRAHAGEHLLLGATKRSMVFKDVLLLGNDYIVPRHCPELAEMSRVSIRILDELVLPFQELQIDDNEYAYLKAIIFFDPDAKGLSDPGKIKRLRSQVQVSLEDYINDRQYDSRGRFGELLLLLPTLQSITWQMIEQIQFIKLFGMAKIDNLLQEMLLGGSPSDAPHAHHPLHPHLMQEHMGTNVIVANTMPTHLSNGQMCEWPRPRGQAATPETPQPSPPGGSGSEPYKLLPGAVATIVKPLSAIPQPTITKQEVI

Sequence | binding signal (log2 normalized intensity)
CTGTTTGGTATCTACTCGGCAAAACGGAGA | -0.739
AGGTCAGCTTGTCCAGAGTAGGCTTGCAAG | -0.885
CTCAAGGCCTTGGCTTGGAACTGACATGCT | -1.23
AAATCTTACCTAAGGAAGTTAACCCCATCA | 3.07
CATGAAGCAATTCTGAGCCCAACCTCCCCA | 4.12
TCTTCAATACAGAGTCCAAATTCCTTGGTA | 3.67
TCACCAAACTTCACAATGGGCCCCAGTAAA | -1.29
ATTTTCCCACTTGTATGTCCAAGGGTCACT | 5.52
GCAAAGTACAAAGTACAGAGATGGCACAGA | 3.53
CTCAGCGGGAGGCAAGATAAGGGTAATCAC | -1.39
TCACTTTTATCACCATCTTGGTTTTGGTGG | 2.15
TGCTAAGAATGCGAACCATTTCCCATGGGA | -1.38
ATCTGTATCAGCCTGTGACAAAGTCCATCT | 5.65
TGTGGCAAAGGTGAATGACCCCTCCCCTCC | 5.93
GGAGTGTCTTTCAGGAAGGAATAAAAGGCT | -1.18
CCTCCTTAGGAAAGAGACATCTGGGAACAA | -1.34
GACAGTCTCCAAGGTTATTATATTGTGGGT | 1.61
TTTCCCTAGCTTATATCCCCTGCCTGGGTC | 1.83
CTGAACATAATTGCAAAATCCTTAGCAAAT | -1.25
TATGAGATTCCCAGAGAGCTCCCCAAAGGG | -1.37
AAATGGAGTGGCCTTTAGAACCGGGGAGAT | 0.895
ATTAGATGATAAGGGTGAAAAGATAGCTTG | -1.34
CAGGATTGGAGATCTGAACTCAAGCTCTTA | -1.18
AGCACTGGCATGCAGCAGGGGAATGGAGAC | -1.33

Sequence | binding signal (log2 normalized intensity)
CCAAAGTCCAAGTTGGTGAGAACAGAGTCT | 1.2
AGGCTGAAGTCCAGTAGCTCAATCAAGGTT | -0.327
AACATTATGAAATCTTATCAGAAGCTTACA | -1.29
TCTGTGGATGTATGTCCAGATAACTCTTGT | 0.86
TGGACAAGGAGGCTGGGCTGCATAGAAGAA | -1.36
TCTTGCCTTTGCTCCTCAAAAACATTCCCC | 1.65
CTGATAAGATTCAGAACCCATTAATTTAGC | -1.27
TGGCTAGTGACTCAGAGCATATGTTGACCC | 5.33
CTTTCCTCCCACCTTCGAGCTTCACCTTTG | 1.89
AGAGAGCAATCATGCACCTGCGGATAATCA | -1.44
ATTGGGGGAGGGTAGTCTATCTCATTACTA | -1.2
AAGAACACAGTGTAGAAGGCAAGGGTCAAG | 2.65
CTGTGCTGCCCTTTGCCCTTTGGGAAGGGG | 6.59
GACTAGACAGGCTTGTCGAGGACAGGATGG | -1.23
TCCTGGTCAGACTTGCCACGGAATCCCAGT | -1.37
ACAACGCCAAGGACCGCCAAGGAAGCGATG | -1.31
GTTCCGCGGTCCGCAGCGCTGGTGGCTGCA | -1.11
CTGAACAGGGTCAGTGCAATCACGCCTCAA | -1.33
CTCATGTGGTCCTAAAATTGACCTTTGATC | 11
GCCTGGCTAAAACCCTGGCCACTCCCTGAT | -1.27
TTGGCTAAAGTCCAAATTCCTTGGAATACA | 3.86
ATTCCATCATCACGGTGGACATTGTCCAAG | 3.69
TGACCTCTGCTTCCTGCTACAGAGCTCAGA | -0.0974
CTTGGGAAAGGAGAAGCTGGAGATAAGGAT | -1.31

Sequence | binding signal (log2 normalized intensity)
ATGTACATGGACTTTGAACCAAGATATGCT | 7.68
AATAAATAACTCTAAGAAATAGGTTAAAGA | -1.03
CACCGTTGGAATGTTCCAAGACCTTTGAAG | 1.91
ATAAAGTGGATGGAGCAATTCAACAACTGT | -1.12
TTTAAGTAAGCCCCCTTCCCCCCTGGGCAA | 4.69
CACGCCCACCCTATTGATGCAAGGACAATG | 1.99
ATTCAGAATAGTTAAGTAACGTGTCAGAGG | 1.14
CTGATCAAATTCCACACCCCCCACTCTTCA | 4.44
GTGCTAGCTCCGACTCAGTGGGGGGGGGGG | -1.47
CAAAAGTTCAAACTTTATTTGATGATGAAG | 0.503
CTGATAGCGAGTTATCTGCATTCCAGCTCA | -1.4
GGAGGAGAGAAGGGCTGAAGGTTAATTCGC | 0.88
GCCGGGTCACGTGGGTCCAGGGTCACGTGC | 3.37
ATGTTTCAAGTGGCCTGATTTGACAAGGCA | 0.063
TAAAACAGTCCATTTCAGTGAACTTTTCAA | 1.75
AATGCTGTTAGCACTCAGTCATTGCCATCT | -1.25
GATACAGATAAATAAATCAAGATCACTGCC | -1.39
CCTATAGCCTCACTTGCTGATAAGGCAGAC | -1.29
TCTGCGCAGGGAGGAGCGCATCGGGCGCCA | -1.35
CTAGGAGATACGCCTGAACTTTGATCAGCA | 6.55
GGAATGCCCTTATCTCCCAGCCACCAAATC | 2.58
GACCAACAGAGAAGGCCCTGAACTCCCAGC | -1.39
GGGAAAACTGATAAAGGGTGAGTGCATGAA | -1.29
GAAGGAATGTAAACTCCAAGGAGCAAATCC | -1.35

Sequence | binding signal (log2 normalized intensity)
CGACCTTTGCTCCCGACTCTGAGGCTCCAT | 5.96
GATAAAGGGTTACAAACTTCAAGGTCCATT | 2.32
GGGGCCTTTAGCACCTTCATCCAAAGATGA | -1.32
GGCCAGGCCAAATCAGAACTGAGTTACTTG | -1.35
TTGACTCAGTTGCAGAAAAACAGGTTCTGC | -1.2
ATCCAGCAGACTTAGACCCTGACCTGGCAT | 2.51
GGTCAAGCCCAACCAAAGTAGAGGAATGCT | -1.27
GGCTTTATGACCAGTGTGTTGTGCTGACCT | 3.74
CCAAAGTCCATGTTCATAACTGTTAAACTC | 1.98
GGCTGATATCTCTCTGGCTGGTGGGCAAGT | 0.457
CTATGTGGTTTTGTAAATATAGGATCATGT | 1.66
AGATTCCTCTGAGTCCTCTTCCCAACTTGG | -1.18
CAAATCCAGGATCAAATACAGAATCAATGC | -1.3
GCCCTCTTGGTATCAGCTTTGAGACACCTG | -0.0925
AAAAGCAAACCAAAAAGTTGGTTGGAGCTA | -1.16
GCAGCTCAGACTGCTTCTCTGCTGGGGCCC | -1.34
GTCATTAATTAACTTGTGTTCAGAGCTTGC | 0.859
ATGGGAACATTCCTCAGGGAATTTCTAGGT | -1.39
TGATAAGATTTATCTCTCCAAGGTACTGTG | 0.189
CAACCCACTGTTGCCCCTTCCAAAGTCCAC | 6.39
ATGAGGCAAAGGTCAGGAGTTCCATTTAGC | 3.92
